# Measurements reported in paper PMC3798263.
# These are yes or no findings as the source states them, for the method shown. Binding seen in cells or lysates may run through a third protein. Some entries that bind do so weakly or less than the wild type. Where a sequence is shown, tags or fusion partners need not be part of it.
# T1: RS40 fused to EYFP-N or EYFP-C (BiFC) (Arabidopsis) (UniProt P92965)
# T1 sequence: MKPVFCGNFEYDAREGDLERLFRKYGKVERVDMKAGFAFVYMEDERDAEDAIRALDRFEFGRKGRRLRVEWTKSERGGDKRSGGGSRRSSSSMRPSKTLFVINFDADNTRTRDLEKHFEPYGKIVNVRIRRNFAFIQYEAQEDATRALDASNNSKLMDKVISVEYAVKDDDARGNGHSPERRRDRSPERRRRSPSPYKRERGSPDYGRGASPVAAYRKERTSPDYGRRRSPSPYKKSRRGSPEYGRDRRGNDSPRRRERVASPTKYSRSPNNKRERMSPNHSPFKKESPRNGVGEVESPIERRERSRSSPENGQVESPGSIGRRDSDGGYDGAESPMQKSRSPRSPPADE
# T2: RS41 fused to EYFP-N or EYFP-C (BiFC) (Arabidopsis) (UniProt P92966)
# T2 sequence: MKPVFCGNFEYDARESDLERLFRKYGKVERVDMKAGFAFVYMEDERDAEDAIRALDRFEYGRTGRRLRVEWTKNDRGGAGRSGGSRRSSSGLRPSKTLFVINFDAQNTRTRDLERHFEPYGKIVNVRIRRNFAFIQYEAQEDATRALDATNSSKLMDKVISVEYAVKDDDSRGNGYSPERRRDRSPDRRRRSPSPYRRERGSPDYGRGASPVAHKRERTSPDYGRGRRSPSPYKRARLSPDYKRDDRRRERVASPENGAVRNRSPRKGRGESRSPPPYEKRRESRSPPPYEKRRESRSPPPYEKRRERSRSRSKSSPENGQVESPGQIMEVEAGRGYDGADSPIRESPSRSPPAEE
# T3: HOS5 fused to EYFP-N or EYFP-C (BiFC) (Arabidopsis) (UniProt Q8W4B1)
# T3 sequence: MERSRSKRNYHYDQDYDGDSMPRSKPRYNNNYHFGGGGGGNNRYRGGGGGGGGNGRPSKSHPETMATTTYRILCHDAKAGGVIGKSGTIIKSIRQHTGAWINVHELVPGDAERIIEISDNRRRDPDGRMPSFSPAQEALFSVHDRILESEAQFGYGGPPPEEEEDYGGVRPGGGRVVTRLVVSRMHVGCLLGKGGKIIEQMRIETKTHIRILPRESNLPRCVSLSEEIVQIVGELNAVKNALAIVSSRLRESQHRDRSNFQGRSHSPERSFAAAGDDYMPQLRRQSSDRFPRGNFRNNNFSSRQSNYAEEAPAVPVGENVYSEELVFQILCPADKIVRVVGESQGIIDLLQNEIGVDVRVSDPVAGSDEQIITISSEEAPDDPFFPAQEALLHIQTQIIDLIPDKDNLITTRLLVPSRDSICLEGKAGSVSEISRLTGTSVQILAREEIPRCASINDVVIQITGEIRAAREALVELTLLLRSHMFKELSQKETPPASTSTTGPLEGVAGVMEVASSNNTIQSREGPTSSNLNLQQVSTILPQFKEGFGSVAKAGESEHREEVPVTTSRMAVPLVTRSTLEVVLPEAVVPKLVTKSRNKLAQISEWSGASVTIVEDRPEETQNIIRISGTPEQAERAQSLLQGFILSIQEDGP
# Key:
# Test in all cases: split reporter; BiFC with EYFP-N and EYFP-C fusions in Arabidopsis protoplasts
# [1] = molecular target: T1, RS40 fused to EYFP-N or EYFP-C (BiFC) (Arabidopsis)
# [2] = molecular target: T2, RS41 fused to EYFP-N or EYFP-C (BiFC) (Arabidopsis)
# [3] = molecular target: T3, HOS5 fused to EYFP-N or EYFP-C (BiFC) (Arabidopsis)
Binder,binding [1],binding [2],binding [3]
"FRY2 fused to EYFP-N or EYFP-C (BiFC) (protein, UniProt Q5YDB6 1-967) MYSNNRVEVFHGDGRLGELEIYPSRELNQQQDDVMKQRKKKQREVMELAKMGIRISHFSQSGERCPPLAILTTISSCGLCFKLEASPSPAQESLSLFYSSCLRDNKTAVMLLGGEELHLVAMYSENIKNDRPCFWAFSVAPGIYDSCLVMLNLRCLGIVFDLDETLVVANTMRSFEDKIDGFQRRINNEMDPQRLAVIVAEMKRYQDDKNLLKQYIESDQVVENGEVIKVQSEIVPALSDNHQPLVRPLIRLQEKNIILTRINPMIRDTSVLVRMRPSWEELRSYLTAKGRKRFEVYVCTMAERDYALEMWRLLDPEGNLINTNDLLARIVCVKSGFKKSLFNVFLDGTCHPKMALVIDDRLKVWDEKDQPRVHVVPAFAPYYSPQAEAAATPVLCVARNVACGVRGGFFRDFDDSLLPRIAEISYENDAEDIPSPPDVSHYLVSEDDTSGLNGNKDPLSFDGMADTEVERRLKEAISASSAVLPAANIDPRIAAPVQFPMASASSVSVPVPVQVVQQAIQPSAMAFPSIPFQQPQQPTSIAKHLVPSEPSLQSSPAREEGEVPESELDPDTRRRLLILQHGQDTRDPAPSEPSFPQRPPVQAPPSHVQSRNGWFPVEEEMDPAQIRRAVSKEYPLDSEMIHMEKHRPRHPSFFSKIDNSTQSDRMLHENRRPPKESLRRDEQLRSNNNLPDSHPFYGEDASWNQSSSRNSDLDFLPERSVSATETSADVLHGIAIKCGAKVEYKPSLVSSTDLRFSVEAWLSNQKIGEGIGKSRREALHKAAEASIQNLADGYMRANGDPGPSHRDATPFTNENISMGNANALNNQPFARDETALPVSSRPTDPRLEGSMRHTGSITALRELCASEGLEMAFQSQRQLPSDMVHRDELHAQVEIDGRVVGEGVGSTWDEARMQAAERALSSVRSMLGQPLHKRQGSPRSFGGMSNKRLKPDFQRSLQRMPSSGRYS",binds,binds,binds
"RS40 fused to EYFP-N or EYFP-C (BiFC) (protein, UniProt P92965 1-350) MKPVFCGNFEYDAREGDLERLFRKYGKVERVDMKAGFAFVYMEDERDAEDAIRALDRFEFGRKGRRLRVEWTKSERGGDKRSGGGSRRSSSSMRPSKTLFVINFDADNTRTRDLEKHFEPYGKIVNVRIRRNFAFIQYEAQEDATRALDASNNSKLMDKVISVEYAVKDDDARGNGHSPERRRDRSPERRRRSPSPYKRERGSPDYGRGASPVAAYRKERTSPDYGRRRSPSPYKKSRRGSPEYGRDRRGNDSPRRRERVASPTKYSRSPNNKRERMSPNHSPFKKESPRNGVGEVESPIERRERSRSSPENGQVESPGSIGRRDSDGGYDGAESPMQKSRSPRSPPADE",,binds,binds
"RS41 fused to EYFP-N or EYFP-C (BiFC) (protein, UniProt P92966 1-356) MKPVFCGNFEYDARESDLERLFRKYGKVERVDMKAGFAFVYMEDERDAEDAIRALDRFEYGRTGRRLRVEWTKNDRGGAGRSGGSRRSSSGLRPSKTLFVINFDAQNTRTRDLERHFEPYGKIVNVRIRRNFAFIQYEAQEDATRALDATNSSKLMDKVISVEYAVKDDDSRGNGYSPERRRDRSPDRRRRSPSPYRRERGSPDYGRGASPVAHKRERTSPDYGRGRRSPSPYKRARLSPDYKRDDRRRERVASPENGAVRNRSPRKGRGESRSPPPYEKRRESRSPPPYEKRRESRSPPPYEKRRERSRSRSKSSPENGQVESPGQIMEVEAGRGYDGADSPIRESPSRSPPAEE",,,binds
"HOS5 fused to EYFP-N or EYFP-C (BiFC) (protein, UniProt Q8W4B1 1-652) MERSRSKRNYHYDQDYDGDSMPRSKPRYNNNYHFGGGGGGNNRYRGGGGGGGGNGRPSKSHPETMATTTYRILCHDAKAGGVIGKSGTIIKSIRQHTGAWINVHELVPGDAERIIEISDNRRRDPDGRMPSFSPAQEALFSVHDRILESEAQFGYGGPPPEEEEDYGGVRPGGGRVVTRLVVSRMHVGCLLGKGGKIIEQMRIETKTHIRILPRESNLPRCVSLSEEIVQIVGELNAVKNALAIVSSRLRESQHRDRSNFQGRSHSPERSFAAAGDDYMPQLRRQSSDRFPRGNFRNNNFSSRQSNYAEEAPAVPVGENVYSEELVFQILCPADKIVRVVGESQGIIDLLQNEIGVDVRVSDPVAGSDEQIITISSEEAPDDPFFPAQEALLHIQTQIIDLIPDKDNLITTRLLVPSRDSICLEGKAGSVSEISRLTGTSVQILAREEIPRCASINDVVIQITGEIRAAREALVELTLLLRSHMFKELSQKETPPASTSTTGPLEGVAGVMEVASSNNTIQSREGPTSSNLNLQQVSTILPQFKEGFGSVAKAGESEHREEVPVTTSRMAVPLVTRSTLEVVLPEAVVPKLVTKSRNKLAQISEWSGASVTIVEDRPEETQNIIRISGTPEQAERAQSLLQGFILSIQEDGP",,,binds
